The values below come from the supplement of paper PMC11417369.

This is one part of the list.

The assay has as its system PfAP2-HC AP2 domain (GST-tagged). Put plainly: gcPBM binding intensity (ln(normalized median fluorescence intensity)); higher = stronger DNA binding. A digest of the protocol:
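Binding intensity is defined as the maximum Masliner-normalised natural-log median intensity across replicate spots for either probe orientation. It was measured on an Agilent 4 × 180k array of primer-extended double-stranded 36-bp intergenic genomic probes and negative controls, to which GST-tagged P. falciparum DNA-binding domains made in E. coli were applied for 1 h in 1× PBS with 1% milk, 0.2 mg/ml BSA, 0.5% salmon testes DNA and 0.03% Triton X-100. Detection was by Alexa488 anti-GST antibody and scanning at 488 nm.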
For “TTATTATGTATATATGCACACAATACCCAAAACAAC [CACACA_site80]”, the “gcPBM binding intensity (ln)” value was 10.
For the sequence “TAATATATATATAATACACACTATTTTAATCACATA [CACACA_site4849]”, the “gcPBM binding intensity (ln)” value was found to be 9.63.
The figure for “TTTTTCAATTGTAGTGGTACAGATATAATTATCTCT [XGTACX_site5500]” is 9.57; for “TTTTTATGAAAATAAACACACGATTTATTATATATA [CACACA_site1311]” it is 9.42.
For “TTCTATATATTATATGCATGTAAAACATATTAAAAT [TGCATGCA_site662]” the value was 9.52.
The figure for “TGCATGTAATTTTTGTGTCCACATAAAATATTTAAT [XGTACX_site5652]” is 9.57.
For the sequence “AGAACGACTAAGCAGTGTACATTTTGTATATACAAT [XGTACX_site2831]”, the “gcPBM binding intensity (ln)” value was found to be 9.72.
As for “TTACATACATACAAGTGTACGCATATATTAATATTA [XGTACX_site4006]”, the “gcPBM binding intensity (ln)” value is 9.64.
For “ATATGTACAAGTTATACACACATGTACAGTTATATA [CACACA_site6706]”, the “gcPBM binding intensity (ln)” value amounted to 9.83.
For the sequence TTTAACATTTCAGATGTGCACATTTTCCGAACCAGT, the “gcPBM binding intensity (ln)” value was 9.76.
As for “ATAATGAAGACTTTTTTACACACTTCATATATTATA [CACACA_site8630]”, the “gcPBM binding intensity (ln)” value amounted to 9.8.
The figure for TGATATTTTTCCATAGTGCAAAATATAGTAATGTAT is 9.63; for “AAAGAACTTAATGCTGCACACAAAAAAAAGGAAAAA [CACACA_site8375]” it is 10.1; for “AAATTGTTAAAAAGAAGTACATTCTTTTATTTCTTA [XGTACX_site540]” it is 9.36.
As for “TAAATGTGTATATATTGTACAAATATTAATACATAC [XGTACX_site8102]”, the “gcPBM binding intensity (ln)” value amounted to 9.74.
The figure for “AGAAAAAAACGGTACAGTACACATAAACTAATTATT [XGTACX_site8617]” is 9.84; for “TATTATATATGGAAGTAATAATATATATATATATAT [GTGCAC_negctrl_site63]” it is 9.53.
“ACAAACTAAAAAAGAAGTACAAATCGTATTAATAAT [XGTACX_site8684]”: the “gcPBM binding intensity (ln)” value is 9.76.
The figure for “TTTTTTGAAAATAAAAGTACAAATTTTATATTTAAA [XGTACX_site2758]” is 9.18.
Consider “CCAACATAGAGGGGCACACACATATATACATAAAAA [CACACA_site1847]”, for which the “gcPBM binding intensity (ln)” value was determined as 10.
The figure for “AGTATACATATATATACACACACATATATATATATA [CACACA_site7883]” is 9.87; for “CTTATATGAAGCCTCTTTATTCATAAATAAGAATAA [TGCATGCA_negctrl_site120]” it is 9.23; for “AAACAACATGGACACGCACACACAAAAAAAGCATGC [CACACA_site73]” it is 10.7.
The figure for “TTAACAAAATTTCCGTGTACGTAAATAAGAACATAG [XGTACX_site7200]” is 9.63.
For “GATTAAATTTGACACTGTACAAAAAATAAAATGAGG [XGTACX_site504]” the value was 9.75.
